Test results from publication PMC11584650, “An inhibitory segment within G-patch activators tunes Prp43-ATPase activity during ribosome assembly” (Nature Communications, 2024).
Positions count from the first letter of the chain named. In names and notes the source's numbering stands. These are yes or no findings as the source states them, for the method shown. Some binding calls cover weakened binding; strength is not graded here. For part of these data: Tags and fused reporters may be left off the sequences shown.

Chains of the proteins cited; added tags and fusions are not shown.
UniProt P53131: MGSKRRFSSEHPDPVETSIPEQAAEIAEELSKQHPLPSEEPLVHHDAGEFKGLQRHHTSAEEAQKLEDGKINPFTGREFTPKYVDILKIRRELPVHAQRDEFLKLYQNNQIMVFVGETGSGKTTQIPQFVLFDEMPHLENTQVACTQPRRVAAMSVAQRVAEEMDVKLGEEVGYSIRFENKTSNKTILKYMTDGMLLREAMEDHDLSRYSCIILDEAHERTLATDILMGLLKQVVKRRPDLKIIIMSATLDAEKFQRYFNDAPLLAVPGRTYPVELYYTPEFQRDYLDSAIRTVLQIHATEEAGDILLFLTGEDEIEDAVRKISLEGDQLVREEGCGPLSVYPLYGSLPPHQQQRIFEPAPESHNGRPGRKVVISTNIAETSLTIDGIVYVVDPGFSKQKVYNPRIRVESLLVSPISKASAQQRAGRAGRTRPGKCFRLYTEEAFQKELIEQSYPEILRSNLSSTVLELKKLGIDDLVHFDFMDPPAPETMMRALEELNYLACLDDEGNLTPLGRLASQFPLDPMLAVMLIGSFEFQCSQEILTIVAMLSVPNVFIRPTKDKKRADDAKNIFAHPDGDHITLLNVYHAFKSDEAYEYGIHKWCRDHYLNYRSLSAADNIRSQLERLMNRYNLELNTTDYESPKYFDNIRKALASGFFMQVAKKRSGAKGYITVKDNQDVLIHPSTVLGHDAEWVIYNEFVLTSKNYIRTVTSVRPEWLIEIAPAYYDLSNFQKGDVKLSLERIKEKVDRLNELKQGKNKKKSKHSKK

B1: Pxr1^GM (recombinant, co-expressed with Prp43) (domain or fragment, UniProt P53335 1-137)
chain: MGLAATRTKQRFGLDPRNTAWSNDTSRFGHQFLEKFGWKPGMGLGLSPMNSNTSHIKVSIKDDNVGLGAKLKRKDKKDEFDNGECAGLDVFQRILGRLNGKESKISEELDTQRKQKIIDGKWGIHFVKGEVLASTWD
B2: Pxr1^GM-L33E (domain or fragment, UniProt P53335 1-137)
chain: B1 chain with L33E
B3: Pxr1^F126A (yeast two-hybrid fusion) (protein, UniProt P53335 1-271)
chain: MGLAATRTKQRFGLDPRNTAWSNDTSRFGHQFLEKFGWKPGMGLGLSPMNSNTSHIKVSIKDDNVGLGAKLKRKDKKDEFDNGECAGLDVFQRILGRLNGKESKISEELDTQRKQKIIDGKWGIHAVKGEVLASTWDPKTHKLRNYSNAKKRKREGDDSEDEDDDDKEDKDSDKKKHKKHKKHKKDKKKDKKDKKEHKKHKKEEKRLKKEKRAEKTKETKKTSKLKSSESASNIPDAVNTRLSVRSKWIKQKRAALMDSKALNEIFMITND
B4: Pxr1 (yeast two-hybrid fusion) (protein, UniProt P53335 1-271)
chain: B3 chain with A126F
B5: Pxr1^GM (yeast two-hybrid fusion) (domain or fragment, UniProt P53335 1-137)
chain: B1 chain

Legend:
[1] = target: His6-Prp43 (S. cerevisiae) (UniProt P53131); assay: cryo-EM structure; purified Prp43:Pxr1^GM complex, 0.2 mg/ml with 5 mM ATPγS, 50 mM Hepes pH 7.5, 200 mM NaCl, 5 mM MgCl2, 2 mM DTT; ADP seen in the map; both purified
[2] = target: His6-Prp43 (S. cerevisiae) (UniProt P53131); assay: co-purification after co-expression (Ni-NTA, SEC); proteins co-expressed in E. coli BL21(DE3)*, Ni-NTA purification of the His6-tagged protein, RNase A, Superose 6 Increase SEC in 50 mM Hepes pH 7.5, 200 mM NaCl, 5 mM MgCl2, 2 mM DTT; the complexes were used for ATPase assays
[3] = target: Prp43 (yeast two-hybrid fusion) (S. cerevisiae) (UniProt P53131); assay: two-hybrid; LexA DNA-binding domain and GAL4 activation domain fusions in the reporter strain NMY32; HIS3 reporter, growth on SD-His, with 3-AT where indicated, 30 °C
[4] = target: Pxr1^GM (yeast two-hybrid fusion) (S. cerevisiae) (UniProt P53335); assay: as above

| Binder | binding [2] | binding [3] | also measured |
| --- | --- | --- | --- |
| B1 | binds | – | binding [1]: binds |
| B2 | binds | – | – |
| B3 | – | binds | – |
| B4 | – | binds | – |
| B5 | – | – | binding [4]: no binding |
